Measured values from publication PMC2837407.
These are yes or no findings as the source states them, for the method shown. Some binding calls cover weakened binding; strength is not graded here. For some assays here: Sequences can lack the tags named with a protein.

Tests used:
Test in all cases: two-hybrid; bacterial two-hybrid in E. coli MM337 (pUT18C, pKT25, pUT18); MacConkey base and M9 plates with 0.5% maltose, two days at 30°C
[1] = molecular target: T1, truncated version of YfiN missing its transmembrane region (residues 1-182) (Pseudomonas aeruginosa PA01) (UniProt Q9I4L5)
T1 sequence: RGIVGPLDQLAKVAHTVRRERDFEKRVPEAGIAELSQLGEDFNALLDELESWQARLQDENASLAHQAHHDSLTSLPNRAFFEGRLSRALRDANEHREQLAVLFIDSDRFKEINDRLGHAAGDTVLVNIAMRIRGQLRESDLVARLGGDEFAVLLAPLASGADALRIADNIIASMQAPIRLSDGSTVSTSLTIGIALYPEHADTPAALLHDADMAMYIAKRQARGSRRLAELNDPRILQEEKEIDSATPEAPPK

[2] = molecular target: isolated periplasmic domain of YfiN (Pseudomonas aeruginosa PA01) (UniProt Q9I4L5)
[3] = molecular target: truncated variant of YfiR missing the predicted signal peptide (residues 1-34) (Pseudomonas aeruginosa PA01) (UniProt Q9I4L4)
[4] = molecular target: T2, truncated version of YfiN missing its transmembrane region (residues 1-182) (Pseudomonas aeruginosa PA01), Q9I4L5; details: remark: other sources report otherwise
T2 chain: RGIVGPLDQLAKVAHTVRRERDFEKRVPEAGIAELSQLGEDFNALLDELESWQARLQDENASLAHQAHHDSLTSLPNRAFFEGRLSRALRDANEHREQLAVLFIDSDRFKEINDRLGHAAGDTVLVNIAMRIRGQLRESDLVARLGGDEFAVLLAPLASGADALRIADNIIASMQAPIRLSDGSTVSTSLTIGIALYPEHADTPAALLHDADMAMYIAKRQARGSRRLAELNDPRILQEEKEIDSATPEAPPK

isolated GGDEF domain of YfiN (from UniProt Q9I4L5 279-415) (domain or fragment)
binding [1]: no binding

isolated HAMP domain of YfiN (from UniProt Q9I4L5 183-236) (domain or fragment)
binding [1]: binds

B1: YfiR (bacterial two-hybrid fusion, variant not stated) (protein, UniProt Q9I4L4 1-190)
chain: MPSLPTLQPLDLYRRTLACLVLAVSCLGGGGLWADDARTSIEQRSNAVSQVLLGIFSYVRWPKEPAVLQLCVVGPTEYADGLLRGMVQANGRRVHAERRAVDNPDLGTLCNVIYLGVVDERERQQVFRSLAGHPVLSISERGTECSVGSMFCLNVGGPRITFEANLDSIARSGVRVHPSVLKLARRQATP
binding [2]: no binding

B2: truncated variant of YfiR missing the predicted signal peptide (residues 1-34) (domain or fragment, UniProt Q9I4L4 35-190)
chain: DDARTSIEQRSNAVSQVLLGIFSYVRWPKEPAVLQLCVVGPTEYADGLLRGMVQANGRRVHAERRAVDNPDLGTLCNVIYLGVVDERERQQVFRSLAGHPVLSISERGTECSVGSMFCLNVGGPRITFEANLDSIARSGVRVHPSVLKLARRQATP
binding [3]: binds

B3: truncated version of YfiN missing its transmembrane region (residues 1-182), Q9I4L5 183-435 (domain or fragment)
chain: RGIVGPLDQLAKVAHTVRRERDFEKRVPEAGIAELSQLGEDFNALLDELESWQARLQDENASLAHQAHHDSLTSLPNRAFFEGRLSRALRDANEHREQLAVLFIDSDRFKEINDRLGHAAGDTVLVNIAMRIRGQLRESDLVARLGGDEFAVLLAPLASGADALRIADNIIASMQAPIRLSDGSTVSTSLTIGIALYPEHADTPAALLHDADMAMYIAKRQARGSRRLAELNDPRILQEEKEIDSATPEAPPK
binding [4]: binds
